In a collection of fitness landscapes (doi:10.1126/science.1257360):
The other results are listed elsewhere or left out.

B1: PhoQ; a variant is named by its letters at X, in order, P23837 (parent)
chain: MKKLLRLFFPLSLRVRFLLATAAVVLVLSLAYGMVALIGYSVSFDKTTFRLLRGESNLFYTLAKWENNKLHVELPENIDKQSPTMTLIYDENGQLLWAQRDVPWLMKMIQPDWLKSNGFHEIEADVNDTSLLLSGDHSIQQQLQEVREDDDDAEMTHSVAVNVYPATSRMPKLTIVVVDTIPVELKSSYMVWSWFIYVLSANLLLVIPLLWVAAWWSLRPIEALAKEVRELEEHNRELLNPATTRELTSLVRNLNRLLKSERERYDKYRTTLTDLTHSLKTPLXXLQXXLRSLRSEKMSVSDAEPVMLEQISRISQQIGYYLHRASMRGGTLLSRELHPVAPLLDNLTSALNKVYQRKGVNISLDISPEISFVGEQNDFVEVMGNVLDNACKYCLEFVEISARQTDEHLYIVVEDDGPGIPLSKREVIFDRGQRVDTLRPGQGVGLAVAREITEQYEGKIVAGESMLGGARMEVIFGRQHSAPKDE

Variants of: B1
Assay: enrichment ratio after two sorts for PhoP signalling (ratio (wild type AVST 3.29)); higher = more functional
Settings: with PhoP (E. coli)

Row | Variant | enrichment ratio
1 | IANR | ≤ 0.25
2 | KIMA | ≤ 0.25
3 | HELK | ≤ 0.25
4 | LLEW | ≤ 0.25
5 | TKYL | 2.59
6 | EGLD | ≤ 0.25
7 | LVAM | ≤ 0.25
8 | AWNL | ≤ 0.25
9 | TSPH | ≤ 0.25
10 | QRYT | ≤ 0.25
11 | QKVL | ≤ 0.25
12 | WWGH | ≤ 0.25
13 | METL | 3.99
14 | RTGH | ≤ 0.25
15 | EMKM | ≤ 0.25
16 | KTWL | ≤ 0.25
17 | SFRM | ≤ 0.25
18 | VWYK | ≤ 0.25
19 | RSNG | ≤ 0.25
20 | DPTW | ≤ 0.25
21 | RIHV | ≤ 0.25
22 | KYQT | ≤ 0.25
23 | QVWN | ≤ 0.25
24 | LTGI | ≤ 0.25
25 | PHRH | ≤ 0.25
26 | AHWG | ≤ 0.25

Row | Variant | enrichment ratio
27 | WWYL | ≤ 0.25
28 | RNLI | ≤ 0.25
29 | TAHW | ≤ 0.25
30 | DMHP | ≤ 0.25
31 | THFS | ≤ 0.25
32 | MYDD | ≤ 0.25
33 | KPTS | ≤ 0.25
34 | DHCH | ≤ 0.25
35 | YREM | ≤ 0.25
36 | KYHT | ≤ 0.25
37 | LNCY | 2.05
38 | ATAF | 10.1
39 | YMYW | ≤ 0.25
40 | ICTC | ≤ 0.25
41 | FAPQ | ≤ 0.25
42 | GLIS | ≤ 0.25
43 | LLPV | ≤ 0.25
44 | ESQP | ≤ 0.25
45 | LFGM | ≤ 0.25
46 | SWGA | ≤ 0.25
47 | PCVH | ≤ 0.25
48 | RLTL | ≤ 0.25
49 | ASTY | 7.94
50 | NSWL | 1.26
51 | HEFC | ≤ 0.25
52 | TPDT | ≤ 0.25

Row | Variant | enrichment ratio
53 | TPHL | ≤ 0.25
54 | QQWH | 10.2
55 | HQKF | ≤ 0.25
56 | YWWA | ≤ 0.25
57 | STWR | ≤ 0.25
58 | YNHH | ≤ 0.25
59 | RSYI | ≤ 0.25
60 | CDFS | ≤ 0.25
61 | GDEF | ≤ 0.25
62 | RPFY | ≤ 0.25
63 | KEIL | ≤ 0.25
64 | INSD | ≤ 0.25
65 | PMYL | ≤ 0.25
66 | KLFS | ≤ 0.25
67 | VANL | ≤ 0.25
68 | LLWM | ≤ 0.25
69 | RLPL | ≤ 0.25
70 | CLYT | ≤ 0.25
71 | YQLY | ≤ 0.25
72 | TWES | ≤ 0.25
73 | TKWF | 13.4
74 | APCV | ≤ 0.25
75 | YVNK | ≤ 0.25
76 | MCCN | 1.43
77 | VILL | 2.96
78 | GGCV | 3.43

Row | Variant | enrichment ratio
79 | KKTI | ≤ 0.25
80 | PGIE | ≤ 0.25
81 | DDFF | ≤ 0.25
82 | RSYY | ≤ 0.25
83 | QFGQ | ≤ 0.25
84 | DLCM | ≤ 0.25
85 | TIGI | 9.38
86 | SRIC | ≤ 0.25
87 | AYIC | ≤ 0.25
88 | FKFY | ≤ 0.25
89 | SVYV | 0.398
90 | WKCY | ≤ 0.25
91 | CNDR | ≤ 0.25
92 | PKHI | ≤ 0.25
93 | SAMT | 7.63
94 | LIAW | ≤ 0.25
95 | HPVN | ≤ 0.25
96 | AYRN | ≤ 0.25
97 | AEIN | 1.09
98 | ASDG | ≤ 0.25
99 | SMGP | ≤ 0.25
100 | INHA | ≤ 0.25
101 | LVQP | ≤ 0.25
102 | EETL | ≤ 0.25
103 | QFDK | ≤ 0.25
104 | WFMR | ≤ 0.25

Row | Variant | enrichment ratio
105 | NAHI | 5.51
106 | HPFW | ≤ 0.25
107 | AYIA | ≤ 0.25
108 | MNHL | ≤ 0.25
109 | LYIR | ≤ 0.25
110 | DADS | ≤ 0.25
111 | QIFT | ≤ 0.25
112 | FQGD | ≤ 0.25
113 | MCMM | 11.9
114 | EHPQ | ≤ 0.25
115 | KPFK | ≤ 0.25
116 | KNAL | ≤ 0.25
117 | DEPW | ≤ 0.25
118 | IRSR | ≤ 0.25
119 | VNYL | ≤ 0.25
120 | YGYL | ≤ 0.25
121 | IEYL | ≤ 0.25
122 | DASN | ≤ 0.25
123 | MSSM | 11.9
124 | VFSA | ≤ 0.25
125 | NSNG | ≤ 0.25
126 | FQIC | ≤ 0.25
127 | PNFM | ≤ 0.25
128 | YDQY | ≤ 0.25
129 | RHAG | ≤ 0.25
130 | RMHL | ≤ 0.25

Row | Variant | enrichment ratio
131 | EVLD | ≤ 0.25
132 | WTMG | ≤ 0.25
133 | PQDG | ≤ 0.25
134 | GVPS | ≤ 0.25
135 | DFDG | ≤ 0.25
136 | NSSA | 0.603
137 | IPGC | ≤ 0.25
138 | HDPM | ≤ 0.25
139 | VNWF | ≤ 0.25
140 | ELWC | ≤ 0.25
141 | HPRH | ≤ 0.25
142 | KVKF | ≤ 0.25
143 | RMNC | ≤ 0.25
144 | TWFF | ≤ 0.25
145 | LPHS | ≤ 0.25
146 | AMIE | ≤ 0.25
147 | LRWT | ≤ 0.25
148 | DPRP | ≤ 0.25
149 | MPLN | ≤ 0.25
150 | RAAV | ≤ 0.25
151 | RTEI | ≤ 0.25
152 | RQHP | ≤ 0.25
153 | NEPY | ≤ 0.25
